{"source": "the supplement of paper PMC10338343", "note": "± gives the standard deviation. Only a part is listed here, and it is no random draw.", "data": [{"test_system": "MIWI (PIWIL1) piRISC loaded with piRNA #1 (30 nt)", "experiment": "pre-steady-state target cleavage rate (min^-1); MIWI and MILI are mouse PIWI proteins and EfPiwi is from a freshwater sponge; tags in brackets are library labels; higher = faster piRNA-guided slicing of the target", "details": "guide: piRNA #1 5'p-UGAGGUAGUAGGUUGUAUAGUAUCCAGAGG; auxiliary factor: 500 nM mouse GTSF1", "method_in_brief": "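Using HEPES–potassium acetate buffer at 33 °C, 1 nM active affinity-purified piRISC with a single synthetic guide was mixed with 0.1 nM transcribed, DNA-blocked target RNA library for 0–8 or 0–960 min, with or without 500 nM GTSF1 partner protein. Uncleaved targets were sequenced and normalised to depth and to weakly complementary targets, and three trials were pooled with k3 capped at 0.0001 min^-1. A burst-and-steady-state fit gave the pre-steady-state cleavage rate.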", "values": [{"sequence": "CCUCUGGAUACUAUACAACCAACUACGUCA", "pre-steady-state target cleavage rate": "0.125 ± 0.015"}, {"sequence": "GGAGUCGAUACUAUACAACCUACUUCCUCA", "pre-steady-state target cleavage rate": "0.244 ± 0.043"}, {"sequence": "CCUCAGGAUACUAUACAAGCUACUACCUCA", "pre-steady-state target cleavage rate": "1.29 ± 0.055"}, {"sequence": "GGAGACCUUACUAUACAACCUACUACCCA", "pre-steady-state target cleavage rate": "0.354 ± 0.038"}, {"sequence": "GGAGACGAAACAAUACAACCUACUACCUCA", "pre-steady-state target cleavage rate": "0.543 ± 0.097"}, {"sequence": "GGAGACCUAUCUAUAGAACGUACUACCUCA", "pre-steady-state target cleavage rate": "0.0514 ± 0.0099"}, {"sequence": "GGACUGGAUAGUAUACAACCUACUAGCUCA", "pre-steady-state target cleavage rate": "0.00517 ± 0.0031"}, {"sequence": "CCUCUGGAUAGCUAUACAACCUACUACCUCA", "pre-steady-state target cleavage rate": "0.546 ± 0.032"}, {"sequence": "GGAGUGGAUACUUUACAACCUACUACCUGA", "pre-steady-state target cleavage rate": "0.297 ± 0.05"}, {"sequence": "GGAGACCUAUGAUAACAACCUACUUGGAGA [g7:g16:cont:t1A]", "pre-steady-state target cleavage rate": "< 0.0001"}, {"sequence": "GGAGACGAUACUAAACAACCUACUACCACA", "pre-steady-state target cleavage rate": "1.29 ± 0.085"}, {"sequence": "GGACUGGAUAGAAUACAACCUACUACCUCA", "pre-steady-state target cleavage rate": "0.508 ± 0.072"}, {"sequence": "GGAGACCUAUGAUAUCAACCUUCUUCCUCA", "pre-steady-state target cleavage rate": "< 0.0001"}, {"sequence": "GGAGACCUAUGAUAUGUUCCUACUACCCCA", "pre-steady-state target cleavage rate": "< 0.0001"}, {"sequence": "GGUCUGGAUACUAUACAACCUCCUACCUCA", "pre-steady-state target cleavage rate": "0.852 ± 0.044"}, {"sequence": "GCUCUGGAUACUAUAGUUCCUACUACCUCA", "pre-steady-state target cleavage rate": "0.191 ± 0.026"}, {"sequence": "GGAGACCAUACUAUACAACCUACAUCCUCA", "pre-steady-state target cleavage rate": "0.614 ± 0.035"}, {"sequence": "GCUCUGGAUACUAUACAAUCCUACUACCUCA", "pre-steady-state target cleavage rate": "0.00658 ± 0.0041"}, {"sequence": "GGUCUGGAUACUAUACAUCCUACAACCUCA", "pre-steady-state target cleavage rate": "0.82 ± 0.066"}, {"sequence": "GGUCAGGAAACUAUACAACCUACUACCUCA", "pre-steady-state target cleavage rate": "1.77 ± 0.12"}, {"sequence": "GGAGAGGAUUCUAUACAACCUACUAGCUCA", "pre-steady-state target cleavage rate": "0.154 ± 0.024"}, {"sequence": "GGAGACGAUACUUAUACAACCUACUACCUCA", "pre-steady-state target cleavage rate": "1.44 ± 0.085"}, {"sequence": "GGAGACCUAUCUAUUCAACGUACUACCUCA", "pre-steady-state target cleavage rate": "0.00683 ± 0.0026"}, {"sequence": "CCUCUGGAUACUAUUCAACCUACUACCUGA", "pre-steady-state target cleavage rate": "0.698 ± 0.092"}, {"sequence": "GGAGACCUAACUAUACAUCCUACUACCACA", "pre-steady-state target cleavage rate": "0.449 ± 0.05"}, {"sequence": "GGAGUCGAUACUAUUCAACCUACUACCUCA", "pre-steady-state target cleavage rate": "1.58 ± 0.096"}, {"sequence": "GGACUGGAUACAUUACAACCUACUACCUCA", "pre-steady-state target cleavage rate": "1.24 ± 0.12"}, {"sequence": "GGAGACGAUACUAUACAACUACUACCUCA", "pre-steady-state target cleavage rate": "0.465 ± 0.027"}, {"sequence": "GGAGACCUUACUGAUACAACCUACUACCUCA", "pre-steady-state target cleavage rate": "0.642 ± 0.068"}, {"sequence": "GGAGUGGAUACUAUACAACGUUCUACCUCA", "pre-steady-state target cleavage rate": "0.118 ± 0.012"}, {"sequence": "GGAGACCUAACAAUACAACCUACUACGUCA", "pre-steady-state target cleavage rate": "0.0842 ± 0.032"}, {"sequence": "GGAGAGGAUACAAUACAACGUACUACCUCA", "pre-steady-state target cleavage rate": "0.0976 ± 0.016"}, {"sequence": "GGAGUGCAUACUAUUCAACCUACUACCUCA", "pre-steady-state target cleavage rate": "1.43 ± 0.11"}, {"sequence": "GGAGAGGAUACUAUACAACCUUGUACCUCA", "pre-steady-state target cleavage rate": "0.0562 ± 0.01"}, {"sequence": "GGAGACCAUACUAUACAACCUUCUACCUGA", "pre-steady-state target cleavage rate": "0.243 ± 0.03"}, {"sequence": "GGAGACCUAUCUAUUCAACCUACUACCUGA", "pre-steady-state target cleavage rate": "0.112 ± 0.028"}, {"sequence": "GGAGAGGAUACAAUACAACCUACUACCACA", "pre-steady-state target cleavage rate": "1.13 ± 0.075"}, {"sequence": "GGAGACGAUAGAUUACAACCUACUACCUCA", "pre-steady-state target cleavage rate": "0.0545 ± 0.014"}, {"sequence": "GGAGUGCAUACUAUACAACCUACUACCACA", "pre-steady-state target cleavage rate": "0.667 ± 0.05"}, {"sequence": "GCUCUGGAUUCUAUACAACCUUCUACCUCA", "pre-steady-state target cleavage rate": "0.516 ± 0.027"}]}]}
